We go through two proteins from publication PMC12902886, “Classification of tauopathies from human brain homogenates through salt‐modulated tau amplification” (Alzheimer's & Dementia, 2026).

The data set concerns the molecule itself. The experiment in a line: RT-QuIC (thioflavin T fluorescence of amyloid aggregation); 2 or 4 uM K12/K11 monomer, 10 uM ThT, 250 mM trisodium citrate or 500 mM sodium sulfate, 10 mM HEPES pH 7.4, 37°C, cycles of 60 s orbital shaking at 500 rpm and 60 s rest, 384-well plates; seeded with dilutions of human brain homogenate in N-2 supplement, or spontaneous; no heparin.

B1: K11 tau fragment with alanine mutations at residues 291 and 322 (domain or fragment)
chain: not shown
notes: tau (microtubule-associated protein tau), human, repeats R1, R2, R3 and R4 and on to residue 400; the methods print '[…] and […]'; Cloned between NdeI and XhoI of pET28; source: E. coli BL21(DE3), purified (HisTrap, acetone precipitation, Superdex 75 SEC)
Regarding B1, the binding result was “binds”.

B2: K12 tau fragment ([…] and […] of full-length human tau) with an alanine mutation at residue 322 (domain or fragment)
chain: not shown
notes: tau (microtubule-associated protein tau), human, […] (repeat R1); tau (microtubule-associated protein tau), human, […] (repeats R3, R4 and on to residue 400); Cloned between NdeI and XhoI of pET28; Repeat R2 ([…]) is absent; also called extended 3-repeat tau substrate; source: E. coli BL21(DE3), purified (HisTrap, acetone precipitation, Superdex 75 SEC)
Regarding B2, the binding result is “binds”.
